Experimental data reported in the supplement of paper PMC3334620.
The full ranking holds about 33,000 sequences; the median of “E-score (-0.5 to 0.5)” is about -0.016, and the highest 2% start at about 0.32. The list shows a part of the results.

The sequences below were run against T1, Stp1 (UniProt B3LFK1) (assay: PBM E-score (8-mer binding enrichment) (E-score (-0.5 to 0.5)); higher = stronger / more preferred TF binding; most listed sequences are background and not binding sites). Settings: protein concentration: 200 nM; construct: GST-full length.
T1 sequence: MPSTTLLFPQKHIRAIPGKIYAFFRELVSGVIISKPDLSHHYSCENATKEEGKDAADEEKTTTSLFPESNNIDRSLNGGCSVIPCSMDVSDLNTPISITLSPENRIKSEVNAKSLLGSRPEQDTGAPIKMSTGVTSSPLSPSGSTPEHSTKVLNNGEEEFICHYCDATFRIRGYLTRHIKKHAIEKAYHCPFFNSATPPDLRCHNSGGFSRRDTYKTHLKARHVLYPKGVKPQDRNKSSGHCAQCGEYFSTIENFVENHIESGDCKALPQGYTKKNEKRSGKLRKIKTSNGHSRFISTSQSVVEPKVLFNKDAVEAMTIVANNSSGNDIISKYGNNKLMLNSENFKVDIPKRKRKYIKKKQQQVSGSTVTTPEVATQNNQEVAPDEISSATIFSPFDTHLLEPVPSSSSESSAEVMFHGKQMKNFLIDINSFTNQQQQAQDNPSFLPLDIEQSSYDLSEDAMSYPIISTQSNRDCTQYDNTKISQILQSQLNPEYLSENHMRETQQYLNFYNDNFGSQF
Outline: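 Full-length yeast transcription factors or their DNA-binding domains, GST-tagged and expressed with PURExpress, were applied at about 100-200 nM to universal all-10-mer Agilent arrays. These arrays had been made double-stranded by primer extension on fresh or once-stripped slides. Detection used fluorescent anti-GST, normalisation used masliner, and E-scores for ungapped eight-base words pooled with reverse complements came from the Universal PBM Analysis Suite.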
In the case of AAGGAAAT, the “PBM E-score” value is reported as 0.132.
CGGCTTAC was tested, and the “PBM E-score” value was 0.104.
ATCTGTCC was tested, and the “PBM E-score” value was -0.14.
CCTAGCCA was tested, and the “PBM E-score” value was -0.0258.
ATATGGGA was tested, and the “PBM E-score” value was -0.221.
In the case of AAGAGAAC, the “PBM E-score” value is reported as -0.00573.
For CTCACGAA, the “PBM E-score” value was 0.195.
With AGGAGGGG the “PBM E-score” value was -0.262.
In the case of GCACATTA, the “PBM E-score” value is reported as 0.22.
With AACTCGCA the “PBM E-score” value was 0.0633.
In the case of AAATTGAA, the “PBM E-score” value is reported as 0.0576.
GACAGCAC was tested, and the “PBM E-score” value was 0.0362.
AGCGGGTC was tested, and the “PBM E-score” value was -0.315.
In the case of GACAGAAA, the “PBM E-score” value is reported as 0.162.
For CAAAGAAG, the “PBM E-score” value was -0.00872.
For CCATGGAG, the “PBM E-score” value was -0.169.
In the case of GCATGATA, the “PBM E-score” value is reported as 0.0383.
With CCAGTCAG the “PBM E-score” value was -0.0588.
CGAACAAG was tested, and the “PBM E-score” value was 0.0896.
ATTAGAGA was tested, and the “PBM E-score” value was 0.0198.
With ACGACAAT the “PBM E-score” value was 0.0963.
For AAGGTGGT, the “PBM E-score” value was -0.15.
In the case of ACCACTAA, the “PBM E-score” value is reported as 0.0268.
In the case of CGCAAGGA, the “PBM E-score” value is reported as 0.00071.
For GGGCTATA, the “PBM E-score” value was -0.293.
In the case of ACACCCGT, the “PBM E-score” value is reported as -0.102.
For GTCCGAAA, the “PBM E-score” value was 0.156.
With AGTGTGTC the “PBM E-score” value was -0.0201.
In the case of ATATTCCG, the “PBM E-score” value is reported as 0.115.
With AAGTTAGC the “PBM E-score” value was 0.122.
GGTTTGAA was tested, and the “PBM E-score” value was 0.0901.
For CATAGTGC, the “PBM E-score” value was 0.106.
For CGCGGAGC, the “PBM E-score” value was 0.0796.
For CCCGTTGC, the “PBM E-score” value was -0.0144.
GCTGCGAC was tested, and the “PBM E-score” value was -0.089.
With GCAAGTTA the “PBM E-score” value was 0.0849.
For GCGGCACC, the “PBM E-score” value was 0.477.
CTGACCCA was tested, and the “PBM E-score” value was -0.253.
For CGCTCTTA, the “PBM E-score” value was 0.191.
ATACGACG was tested, and the “PBM E-score” value was 0.0547.
For CAACGTAG, the “PBM E-score” value was -0.0975.
With CCGTTAGA the “PBM E-score” value was 0.191.
With GCAGACGA the “PBM E-score” value was 0.0875.
With TGTGCACA the “PBM E-score” value was -0.219.
ACCTCGCT was tested, and the “PBM E-score” value was -0.105.
In the case of CTACGGGA, the “PBM E-score” value is reported as -0.145.
ATACCCGC was tested, and the “PBM E-score” value was 0.212.
AGTCGAAG was tested, and the “PBM E-score” value was -0.115.
In the case of AATAACAG, the “PBM E-score” value is reported as 0.2.
With CAACAGGA the “PBM E-score” value was -0.146.
CCTATTTA was tested, and the “PBM E-score” value was 0.0522.
For ACCGCACT, the “PBM E-score” value was -0.134.
With AGGAACCC the “PBM E-score” value was -0.299.
For AAGACAGA, the “PBM E-score” value was 0.132.
With AAACATTT the “PBM E-score” value was 0.0291.
For GGTGCACA, the “PBM E-score” value was -0.126.
With ATCGAAAG the “PBM E-score” value was 0.148.
TATATAGA was tested, and the “PBM E-score” value was 0.193.
With AGGTGCGG the “PBM E-score” value was 0.189.
With GTTCGAAC the “PBM E-score” value was 0.246.
ATGCTCTC was tested, and the “PBM E-score” value was -0.196.
In the case of ACGTGGCG, the “PBM E-score” value is reported as 0.272.
In the case of CTTAAGGA, the “PBM E-score” value is reported as -0.0327.
In the case of AATGGTTG, the “PBM E-score” value is reported as 0.0793.
In the case of AGCCCGTC, the “PBM E-score” value is reported as -0.303.
For AAAACGAA, the “PBM E-score” value was 0.0597.
With CGGATGCC the “PBM E-score” value was 0.254.
AATATTGG was tested, and the “PBM E-score” value was -0.219.
GATAGAGA was tested, and the “PBM E-score” value was -0.145.
For ACCGGAAT, the “PBM E-score” value was -0.219.
In the case of GAACGGAA, the “PBM E-score” value is reported as 0.138.
CAAATGAG was tested, and the “PBM E-score” value was -0.0429.
AGTATGAG was tested, and the “PBM E-score” value was 0.0527.
In the case of AGGCCGCG, the “PBM E-score” value is reported as 0.244.
CAAACTCG was tested, and the “PBM E-score” value was -0.00524.
For ATTCGCAC, the “PBM E-score” value was 0.0125.
For CGTTAGAC, the “PBM E-score” value was 0.0981.
With CATGAACA the “PBM E-score” value was 0.21.
For AATTCTCC, the “PBM E-score” value was 0.0125.
For CCCTGGAC, the “PBM E-score” value was -0.218.
For GCCTATTA, the “PBM E-score” value was 0.137.
For CACGACAG, the “PBM E-score” value was 0.0144.
CATTGATA was tested, and the “PBM E-score” value was 0.151.
With TGAAGTCA the “PBM E-score” value was -0.127.
In the case of CACATATA, the “PBM E-score” value is reported as 0.144.
In the case of GCCACCCC, the “PBM E-score” value is reported as -0.188.
ACAGACGT was tested, and the “PBM E-score” value was 0.0596.
In the case of CACATGCA, the “PBM E-score” value is reported as 0.03.
AAGTGGAC was tested, and the “PBM E-score” value was -0.198.
With ATAGTGAG the “PBM E-score” value was -0.0378.
With CCCTGTCG the “PBM E-score” value was 0.0867.
With ATCAGGTA the “PBM E-score” value was 0.0408.
With AGCCTAAA the “PBM E-score” value was -0.00042.
In the case of ATCTACAA, the “PBM E-score” value is reported as 0.112.
With ACGCGCTC the “PBM E-score” value was 0.105.
GTAATCTA was tested, and the “PBM E-score” value was 0.192.
For CACCATGG, the “PBM E-score” value was -0.179.
TGCTATAA was tested, and the “PBM E-score” value was -0.105.
For AATAAATT, the “PBM E-score” value was 0.186.
In the case of ACATGCGC, the “PBM E-score” value is reported as 0.0198.
For AAGGGGAC, the “PBM E-score” value was -0.223.
For TACCTGGA, the “PBM E-score” value was 0.0429.
CTTATTCC was tested, and the “PBM E-score” value was 0.00804.
In the case of AGCTTCAC, the “PBM E-score” value is reported as -0.221.
In the case of CGGCGACC, the “PBM E-score” value is reported as 0.203.
With ACTTAACC the “PBM E-score” value was -0.121.
With GAGCTCCC the “PBM E-score” value was -0.366.
ATCAGGAG was tested, and the “PBM E-score” value was 0.00491.
In the case of AGCGCCAC, the “PBM E-score” value is reported as 0.13.
For AAAAGATC, the “PBM E-score” value was -0.0296.
